# Test results reported in the supplement of paper PMC12217912.
# This is one part of the list. The full chains were built here from the parent and the listed change. Values near 0.05 are background.
# B1: TEV protease; numbered along this chain (parent)
# chain: MGESLFKGPRDYNPISSSICHLTNESDGHTTSLYGIGFGPFIITNKHLFRRNNGTLVVQSLHGVFKVKDTTTLQQHLVDGRDMIIIRMPKDFPPFPQKLKFREPQREERICLVTTNFQTKSMSSMVSDTSCTFPSGDGIFWKHWIQTKDGQCGSPLVSTRDGFIVGIHSASNFTNTNNYFTSVPKNFMELLTNQEAQQWVSGWRLNADSVLWGGHKVFMVKPEEPFQPVKEATQL
# Variants of: B1
# Assay: raw area under fraction-flipped curve 0-4 h after induction (AUC4h, not background-subtracted), DNA-recorder readout of cleavage of the substrate (dimensionless); higher = more cleavage of the substrate by the protease variant
# Settings: temperature: 34 °C; time window: 0-4 h after rhamnose induction
# Method: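 In vivo DNA recorder in E. coli TOP10(DE3) ΔrhaA at 34 °C. Each TEVp single-site mutant (parent TEVp 0) is paired with a single-site variant of the 7-mer TEVs (canonical ENLYFQ|S). The substrate sits between flexible linkers in a Bxb1-sfGFP-TEVs-SsrA fusion, so cleavage stabilises Bxb1 and speeds flipping of a recombination array, read by NGS. The value is the raw area under the fraction-flipped curve over 0-4 h after rhamnose induction (AUC4h), with ≥20 reads per time point. It is not background-subtracted; inactive controls average about 0.047.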
# 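Further: Bxb1 expression induced with 0.2% (w/v) L-rhamnose at OD600 near 0.5, cultures sampled hourly, flipped fraction per protease–substrate barcode pair counted by paired-end Illumina sequencing.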
Variant,area with substrate EALYFQS,area with substrate ECLYFQS,area with substrate EDLYFQS,area with substrate EELYFQS,area with substrate EFLYFQS,area with substrate EGLYFQS,area with substrate EHLYFQS,area with substrate EILYFQS,area with substrate EKLYFQS,area with substrate ELLYFQS,area with substrate EMLYFQS,area with substrate EPLYFQS,area with substrate ERLYFQS,area with substrate ESLYFQS,area with substrate ETLYFQS,area with substrate EVLYFQS,area with substrate EWLYFQS,area with substrate EQLYFQS,area with substrate EYLYFQS
H21I,0.0985,0.0999,0.104,0.0902,0.0863,0.0742,0.113,0.0795,0.123,0.0719,0.0998,0.113,0.093,0.0875,0.0919,0.0803,0.0739,–,–
K120A,0.154,–,–,0.126,–,0.0959,–,0.0894,0.111,0.0826,0.134,–,–,0.0977,0.106,0.103,–,0.102,–
L112K,0.134,0.111,0.122,0.112,–,–,0.104,0.106,0.125,0.0699,0.168,0.118,0.0959,0.0911,0.102,0.0879,0.124,0.101,0.0639
Y12V,0.138,–,–,–,0.0902,0.0949,0.0871,0.129,0.101,0.105,0.109,0.123,0.0905,0.106,–,–,0.107,0.125,–
K216T,0.116,–,–,0.0907,0.097,0.0805,–,0.0691,0.109,–,–,0.117,0.0955,0.0846,0.107,0.0992,–,0.105,0.0944
P134T,0.096,–,–,–,–,–,0.0854,–,–,–,–,–,0.0771,0.0875,0.0606,0.0852,0.0959,–,–
P155Q,0.0554,0.0483,0.0485,0.0661,0.0463,0.0505,0.0495,0.0497,0.0497,0.0064,0.048,0.0587,0.0568,0.053,–,0.0505,0.0524,0.0553,0.0449
H62K,0.12,0.103,0.108,0.129,–,–,0.101,0.0951,–,–,–,–,–,0.0655,–,0.0679,–,0.131,–
I110V,0.121,0.0696,0.124,0.14,0.0952,0.0862,0.105,0.0658,0.103,0.0961,0.135,–,0.101,0.0996,–,0.0996,0.0913,–,0.0911
G80I,0.131,0.119,0.174,–,–,–,–,0.0999,–,0.137,0.113,0.12,0.115,0.124,–,–,0.098,0.118,0.184
G202F,0.0527,–,–,–,–,0.057,–,0.06,–,0.0688,0.0548,0.0638,0.0536,0.0555,0.075,0.0462,0.0942,–,–
K98W,0.183,0.117,0.121,0.118,0.0887,0.0957,0.0945,0.0969,0.111,0.0841,–,0.121,0.0968,0.111,–,0.099,0.102,0.118,–
T72E,0.0969,–,–,–,–,–,–,–,–,–,–,–,–,0.102,0.0874,–,–,0.109,–
